Source: the supplement of paper PMC4967469
The IC50 comes from the fitted curve, where viability falls to half of the control; a limit (>, <) means that the fit lies beyond the doses tested. For AUC the same curve is integrated over the 256-fold range of doses and scaled to a fraction; the more sensitive the line, the further below 1. For some of these results: A top dose marked as inferred was derived from the fitted curves, not read from the paper. For some of these results: Drugs with an entry number were screened twice under separate entries, and the two screens often disagree.

Legend:
Assay in all cases: Viability of human cancer cell lines after 72 h of drug (GDSC screen)
[1] = compound: NCC(=O)Nc1ccc(-n2nc(C(F)(F)F)cc2-c2ccc3c(ccc4ccccc43)c2)cc1 [OSU-03012]; settings: top dose 16 µM; top dose inferred
Experimental: (§1)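 Human cancer cell lines in 384-well plates, medium with 10% serum, drug for 72 h over a 256-fold dose range (nine 2-fold or five 4-fold steps up to the top dose). Adherent lines were fixed and stained with the nucleic acid dye Syto60, suspension lines read with resazurin; signal relative to control wells, capped at 0 and 100%. One two-parameter sigmoid per drug and line, fitted in a mixed model over all curves with the slope shared within a line.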

[2] = compound: C#Cc1cccc(Nc2ncnc3cc(OC)c(OCCCCCCC(=O)NO)cc23)c1 [CUDC-101]; settings: top dose 5.12 µM; top dose inferred
Experimental: as §1

[3] = compound: CC(C)(C)c1cc(NC(=O)Nc2ccc(-c3cn4c(n3)sc3cc(OCCN5CCOCC5)ccc34)cc2)no1 [AC220]; settings: top dose 1.024 µM; top dose inferred
Experimental: as §1

[4] = compound: OC[C@H](Cc1ccccc1)Nc1nc(Oc2ccc3c(c2)CCC3)nc2c1ncn2Cc1ccc(-c2ccccc2)cc1 [QS11]; settings: top dose 10.24 µM
Experimental: as §1

[5] = compound: COc1cc(F)c(F)c(Nc2ccc(I)cc2F)c1NS(=O)(=O)C1(C[C@H](O)CO)CC1 [RDEA119]; settings: top dose 5 µM, top dose inferred
Experimental: as §1

[6] = compound: Fc1cc(-c2ccnc(Nc3ccc(-n4cnc(N5CCOCC5)n4)cc3)n2)cc(N2CCOCC2)c1 [JNK-9L]; settings: top dose 5.12 µM; top dose inferred
Experimental: as §1

[7] = compound: O=c1[nH]cc(F)c(=O)[nH]1 [5-Fluorouracil]; settings: top dose 32 µM; top dose inferred
Experimental: as §1

| Cell Line | AUC [1] | IC50 [1] | AUC [2] | IC50 [2] | AUC [3] | IC50 [3] | AUC [4] | IC50 [4] | AUC ([5]; screen: GDSC drug entry 1014) | IC50 ([5]; screen: GDSC drug entry 1014) | AUC ([5]; screen: GDSC drug entry 1526) | IC50 ([5]; screen: GDSC drug entry 1526) | AUC [6] | IC50 [6] | AUC [7] | IC50 [7] |
| --- | --- | --- | --- | --- | --- | --- | --- | --- | --- | --- | --- | --- | --- | --- | --- | --- |
| HCC2157 (breast, suspension) | 0.869 | > 16 µM | 0.821 | 3150 nM | 0.685 | 217 nM | 0.851 | 8.49 µM | 0.951 | > 5000 nM | 0.985 | > 5000 nM | 0.594 | 588 nM | 0.787 | 14.7 µM |
| NCI-H1355 (lung adenocarcinoma, adherent) | 0.733 | 6.33 µM | 0.918 | > 5120 nM | 0.974 | > 1020 nM | 0.92 | > 10.2 µM | 0.883 | > 5000 nM | 0.697 | 1440 nM | 0.666 | 1150 nM | 0.949 | > 32 µM |
| MMAC-SF (melanoma, adherent) | 0.853 | 13.4 µM | 0.785 | 2300 nM | 0.967 | > 1020 nM | 0.894 | > 10.2 µM |  |  | 0.235 | 51.4 nM | 0.708 | 1270 nM | 0.917 | > 32 µM |
| CP66-MEL (melanoma, adherent) | 0.866 | > 16 µM | 0.782 | 2460 nM | 0.972 | > 1020 nM | 0.836 | 8.21 µM | 0.338 | 103 nM | 0.312 | 85.8 nM | 0.658 | 936 nM | 0.984 | > 32 µM |
| JJN-3 (haematopoietic neoplasm, suspension) | 0.75 | 4.42 µM | 0.371 | 151 nM | 0.986 | > 1020 nM | 0.978 | > 10.2 µM | 0.726 | 1190 nM | 0.975 | > 5000 nM | 0.529 | 378 nM | 0.873 | 21.5 µM |
| SH-4 (melanoma, adherent) | 0.744 | 7.55 µM | 0.825 | > 5120 nM | 0.951 | > 1020 nM | 0.875 | > 10.2 µM | 0.39 | 132 nM | 0.5 | 312 nM | 0.543 | 447 nM | 0.95 | > 32 µM |
| GRANTA-519 (B-cell lymphoma, suspension) | 0.702 | 3.45 µM | 0.717 | 1220 nM | 0.987 | > 1020 nM | 0.941 | > 10.2 µM | 0.985 | > 5000 nM |  |  | 0.723 | 1270 nM | 0.877 | 26.6 µM |
| MZ1-PC (pancreas, adherent) | 0.507 | 1.05 µM | 0.606 | 671 nM | 0.97 | > 1020 nM | 0.818 | 7.67 µM | 0.657 | 950 nM | 0.67 | 1050 nM | 0.401 | 160 nM | 0.569 | 3.22 µM |
| OS-RC-2 (kidney, adherent) | 0.733 | 6.36 µM | 0.84 | > 5120 nM | 0.977 | > 1020 nM | 0.879 | > 10.2 µM | 0.866 | > 5000 nM | 0.853 | > 5000 nM | 0.479 | 274 nM | 0.926 | > 32 µM |
| RMG-I (ovary, adherent) | 0.745 | 5.77 µM | 0.388 | 149 nM | 0.98 | > 1020 nM | 0.941 | > 10.2 µM |  |  | 0.608 | 652 nM | 0.666 | 1010 nM | 0.918 | > 32 µM |
| NCI-H1092 (small cell lung carcinoma, suspension) | 0.99 | > 16 µM | 0.465 | 257 nM | 0.974 | > 1020 nM | 0.98 | > 10.2 µM | 0.988 | > 5000 nM | 0.984 | > 5000 nM | 0.79 | 2310 nM | 0.912 | > 32 µM |
| MHH-PREB-1 (B-cell leukaemia, suspension) | 0.599 | 1.81 µM | 0.185 | 41.9 nM | 0.989 | > 1020 nM | 0.912 | > 10.2 µM | 0.988 | > 5000 nM | 0.978 | > 5000 nM | 0.512 | 344 nM | 0.675 | 5.81 µM |
| COLO-668 (small cell lung carcinoma, adherent) | 0.814 | 8.72 µM | 0.618 | 675 nM | 0.97 | > 1020 nM | 0.951 | > 10.2 µM | 0.873 | 4820 nM | 0.927 | > 5000 nM | 0.569 | 494 nM | 0.696 | 7.11 µM |
| H2722 (mesothelioma, adherent) | 0.84 | 14.2 µM | 0.585 | 571 nM | 0.984 | > 1020 nM | 0.984 | > 10.2 µM |  |  | 0.869 | > 5000 nM | 0.677 | 1100 nM | 0.971 | > 32 µM |
| A172 (glioma, adherent) | 0.7 | 3.56 µM | 0.593 | 570 nM | 0.988 | > 1020 nM | 0.837 | 6.52 µM |  |  | 0.86 | 3940 nM | 0.496 | 312 nM | 0.876 | 29.7 µM |
| KS-1 (glioma, adherent) | 0.751 | 6.44 µM | 0.525 | 381 nM | 0.977 | > 1020 nM | 0.962 | > 10.2 µM | 0.664 | 1000 nM | 0.794 | 2960 nM | 0.413 | 175 nM | 0.888 | > 32 µM |
| NCI-H1694 (small cell lung carcinoma, suspension) | 0.789 | 7.05 µM | 0.391 | 161 nM | 0.932 | > 1020 nM | 0.939 | > 10.2 µM | 0.986 | > 5000 nM | 0.974 | > 5000 nM | 0.715 | 1290 nM | 0.894 | > 32 µM |
